# According to publication PMC6919601, “Identification of Plasmodium dipeptidyl aminopeptidase allosteric inhibitors by high throughput screening” (PLoS ONE, 2019):
# Values joined by “and” are separate entries in the source; they are usually repeats but may differ in a detail not shown here. Identical values can stand only once. Out of some 110,000 compounds screened, about 230 (0.21%) showed an effect of 50% or more. The list shows a part of the results.
# Target: DPAP1 (Plasmodium falciparum, UniProt Q8IIJ9)
# Test: primary screen, percent inhibition; read by cleavage of a fluorogenic dipeptide substrate; higher = more effect of the substance
# Parameters: species or system P. falciparum D10 trophozoite lysates; single well
# 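Further: 30 min substrate incubation versus DMSO and 10 µM JCP410 controls.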
# DPAP1, sequence (Q8IIJ9 whole entry, looked up): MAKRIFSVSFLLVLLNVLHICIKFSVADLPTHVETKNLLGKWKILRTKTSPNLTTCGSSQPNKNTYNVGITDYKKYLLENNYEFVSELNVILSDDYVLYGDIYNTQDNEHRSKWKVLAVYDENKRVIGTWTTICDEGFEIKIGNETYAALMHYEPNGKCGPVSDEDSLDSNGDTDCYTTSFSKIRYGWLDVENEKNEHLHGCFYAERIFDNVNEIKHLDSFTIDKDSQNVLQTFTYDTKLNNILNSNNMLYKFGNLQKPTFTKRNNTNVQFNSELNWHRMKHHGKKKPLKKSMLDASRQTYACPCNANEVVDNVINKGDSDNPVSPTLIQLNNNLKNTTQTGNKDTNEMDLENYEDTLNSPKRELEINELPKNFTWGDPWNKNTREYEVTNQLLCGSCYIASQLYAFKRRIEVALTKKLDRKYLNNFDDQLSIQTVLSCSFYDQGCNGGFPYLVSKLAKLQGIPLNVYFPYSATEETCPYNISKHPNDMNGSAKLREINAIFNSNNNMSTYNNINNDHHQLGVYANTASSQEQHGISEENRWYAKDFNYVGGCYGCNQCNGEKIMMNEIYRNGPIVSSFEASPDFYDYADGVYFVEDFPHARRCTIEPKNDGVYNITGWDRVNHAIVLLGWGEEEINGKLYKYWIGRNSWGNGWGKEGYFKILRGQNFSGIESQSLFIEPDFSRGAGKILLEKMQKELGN
row,SMILES,% Inhibition @ 10 uM
1,Cc1ccc(C(=O)NC2(C(F)(F)F)N=C(c3ccccc3F)NC2=O)cc1 (centres unmarked),-5.04%
2,CCCc1cc2c(=O)c(-c3nc4ccccc4s3)c(C(F)(F)F)oc2cc1O,4.9%
3,CC(=O)N/C(=C/c1ccccc1Br)C(=O)NC(C)(C)C,-3.78%
4,CCCS(=O)(=O)c1nc(S(=O)(=O)c2ccc(C)cc2)c(N2CCN(CC)CC2)s1,2.76%
5,CCCn1c(SCc2nc(-c3ccc(C)cc3)no2)nnc1-c1ccncc1,1.25%
6,N#CC1=C(N)N(c2cc(C(F)(F)F)ccc2Cl)C2=C(C(=O)CCC2)C1c1cccnc1 (centres unmarked),-6.62%
7,CC[C@H](NC(=O)[C@H](CS(=O)(=O)Cc1ccccn1)NC1=NS(=O)(=O)c2ccccc21)C(=O)c1nc(-c2ccccc2)no1,-6.56%
8,Cc1cccc(N2CCN(C(=O)C3C4C=CC(C4)C3C(=O)O)CC2)c1C (centres unmarked),3.67%
9,CC1=C(C(=O)OCC(C)C)C(c2ccc(Cl)c(Cl)c2)NC(=O)N1 (centres unmarked),0.736%
10,CN(C1CCCC1)C1CCN(C(=O)CNC(=O)/C=C/c2cccc(C(F)(F)F)c2)CC1,0.689%
11,C#CCOc1cc(Br)c(/C=C2\NC(=O)NC2=O)cc1OC,-5.48%
12,Cn1nccc1C#CCN1CCOCC1,0.937%
13,Cc1cccnc1NC(=O)c1noc2c1COc1ccccc1-2,-3.51%
14,Oc1nnc2n1CCCCC2,1.91%
15,CC(C)C[C@H](NC(=O)c1cccc2ccccc12)C(=O)NCC#N,-1.41%
16,CC(=O)OC1C2CCC1C(N1CCCCC1)CC2 (centres unmarked),-3.62% and -1.66%
17,COc1cc(C(=O)O)ccc1OCc1ccc(Cl)cc1,-0.511%
18,O=C(NCCc1ccc(Cl)cc1)c1csc2c1CCCC2,-3.21%
19,Cc1nnc(SCCc2ccccc2)nc1O,-1.1%
20,O=C(NCC(F)(F)C(F)F)c1cccnc1,1.04%
21,O=C(NCCO)C12CC3CCC(CC(C3)C1)C2,2.58%
22,CCc1nnc(NC(=O)CSc2nc[nH]n2)s1,8.01%
23,COC(=O)c1c(C)nn2c3ccccc3n(C)c12,-7.19%
24,Clc1ccc2c(c1)C=C(N1CCNCC1)c1ccccc1S2,2.64%
25,O=c1c2ccccc2nc(-c2ccccc2F)n1-c1ccccc1,2.09%
26,COc1ccc(C(=O)Nc2ccc(N(C)C)cc2)cc1OC,-2.18%

row,SMILES,% Inhibition @ 10 uM
1,Cc1csc2nc(CNC(=O)CCC(=O)O)cn12,-4.24%
2,COc1cc(SC)ccc1C(=O)Nc1cccc(CCc2ccccn2)c1,2.76%
3,COc1ccc(OC)c(COC(=O)N[C@@H](CC(C)C)C(=O)NCC#N)c1,-4.72%
4,COc1ccc(N(CC(=O)N2CCOCC2)S(C)(=O)=O)c(OC)c1,-4.72%
5,COc1ccc(-n2ncc(C(=O)NCCCN3CCN(C)CC3)c2C2CCNCC2)cc1,-7.13%
6,COc1cc2c(cc1OC)C1=C(C#N)CN(CCc3ccccc3)CN1CC2,5.83%
7,CCOC(=O)C1=C(C)OC(N)=C(C#N)C1c1ccccc1 (centres unmarked),-1.77%
8,Nc1cc(C(=O)O)c(Cl)cc1C(=O)O,1.64%
9,CSc1nc(N)nc(SCc2c(F)cccc2Cl)c1C#N,1.76%
10,Cc1ccc(S(=O)(=O)N(CC(=O)NC(C)C)c2ccc(Br)cc2)cc1,-2.92%
11,CC(C)(C(=O)O)N1C(=O)c2ccccc2C1=O,1.27%
12,N#CCn1nc2ccccc2n1,-2.17%
13,CC1=C(C(=O)OC2CCCCC2)C(c2cccc(O)c2)C2=C(O)CC(C)(C)CC2=N1 (centres unmarked),-2.18%
14,COc1ccccc1/C=C1\C(=O)NC(=S)N(c2ccc(C)cc2)C1=O,-2.5%
15,Cc1ccc(C2C(C(=O)c3ccc4c(c3)OCCO4)=C(O)C(=O)N2CCCN(C)C)o1 (centres unmarked),1.64%
16,CC(C)=CC/C=C1\CCC(C(=O)O)C(C(=O)O)C1 (centres unmarked),2%
17,CCOc1ccccc1CNCc1cccn1-c1nnc(N2CCN(C3CCCCC3)CC2)s1,1.41%
18,NC(=S)Cc1nc(-c2cc3ccccc3oc2=O)cs1,23.7%
19,Cc1ccc(Cn2nnc3c(=O)n(CC(=O)NC4CCCC4)cnc32)cc1,-0.431%
20,Cn1c2c(c(=O)n(C)c1=O)CN(CCc1ccc(Cl)cc1)CN2,-6.67%
21,CCN1CCn2c3c(c4cc(Cl)ccc42)CCCC31 (centres unmarked),3.15%
22,O=c1c2ccccc2nc(Cc2ccccc2)n1-c1ccc(O)cc1,1.15%
23,CNC(=O)c1c(O)nc2ccccc2c1O,-3.55%
24,CC(C)(C)C(=O)NCCCc1nc2ccccc2n1CCOc1ccccc1,-2.28%
25,COc1ccc(Cc2nc(S(=O)(=O)c3ccc(C)cc3)c(N3CCOCC3)o2)cc1,-1.72%
26,Cc1nc2c(O)nc3ccccc3c2o1,-1.59%

row,SMILES,% Inhibition @ 10 uM
1,COc1ccc2c(c1)CCC1C2=NN(C(C)=O)C1c1ccc(C)cc1 (centres unmarked),0.315%
2,N#Cc1cc2c(nc1SCC(=O)Nc1ccc(F)cc1)CCC2,5.83%
3,CC(C)C(NC(=O)/C(=C/c1ccccc1)NC(=O)c1ccc(Br)o1)C(=O)O (centres unmarked),-1.07%
4,O=C(Nc1ccc2c(c1)OCCO2)C1CCC1,-3.37%
5,Cc1cc(C(=O)N2CCN(C)CC2)c2c(C)nn(-c3ccccc3)c2n1,3.75%
6,CCOC(=O)c1cnc(SCC(=O)NC(C)c2ccccc2)nc1N (centres unmarked),2.21%
7,Fc1cccc(CN2CCN(c3ccccc3F)CC2)c1,0.847%
8,O=c1oc2c(CN3CCOCC3)c(O)ccc2cc1-c1nc2ccccc2s1,3.8%
9,CCOC(=O)c1cnc2cc(Cl)c(Oc3ccc(Cl)cc3)cc2c1O,-4.23%
10,CCOC(=O)N1CCc2c(sc3nc(SC)n(Cc4ccccc4)c(=O)c23)C1,-4.12%
11,CCCC1=C(C(=O)OCC)C(c2ccoc2)C(C#N)=C(N)O1 (centres unmarked),-6.47%
12,Cc1c(C(N)=O)sc(NC(=O)COc2ccccc2)c1C#N,-4.65%
13,O=C(NCc1ccccn1)c1cccc(C(=O)NCc2ccccn2)c1,3.84%
14,CCCN1C(=O)c2[nH]nc(-c3ccccc3O)c2C1c1cccc(Br)c1 (centres unmarked),3.62%
15,CCCCNC(=S)N1CCCCC1c1cccnc1 (centres unmarked),4.67%
16,COc1ccc(C(CC(=O)Nc2cc(C)ccn2)N2Cc3ccccc3C2=O)cc1OC (centres unmarked),-5.56%
17,N#Cc1ccccc1NC(=O)c1ccccc1-c1ccccc1C(=O)Nc1ccccc1C#N,-2.18%
18,COc1ccc(C)cc1NC(=O)c1c(Cl)c(C)nn1C,-1.64%
19,CCCCSc1nc(-c2cccs2)cc(C(F)(F)F)c1C#N,60.7%
20,CC1=C(C(=O)OC2CCCC2)C(c2cccc(Cl)c2)NC(=O)N1 (centres unmarked),5.01%
21,COc1cc2c(cc1NC(=O)c1c(OC)cccc1OC)oc1ccccc12,-5.49%
22,CCOC(=O)N1CCC(N2CCN(c3cccc(C(F)(F)F)c3)CC2)CC1,1.38%
23,CCOC(=O)N1CCC(/N=c2\c(O)c(O)\c2=N/CCCN(C)Cc2ccccc2)CC1,-1.44%
24,CC1CN(C(=O)c2cccs2)CC(C)O1 (centres unmarked),0.177%
25,O=C(c1ccc(Br)o1)N1CCN(c2ccccc2F)CC1,5.69%
26,O=C(C1CCC(CNc2c(N3CCOCC3)c(=O)c2=O)CC1)N1CCCCC1 (centres unmarked),1.22%

row,SMILES,% Inhibition @ 10 uM
1,CCOc1ccc2c3c(c(=O)oc2c1)CCC3,-3.38%
2,Brc1ccc(N2N=C(c3ccccn3)CC2c2ccccc2)cc1 (centres unmarked),-3.15%
3,CC(C)(C)c1ccc(S(=O)(=O)c2cc3ccccc3oc2=O)cc1,-1.3%
4,COc1ccc(-c2cc(C)no2)cc1S(=O)(=O)NCc1ccccc1Cl,-2.46%
5,O=C1NCCCC2c3cc(O)c4ccccc4c3OC12N1CCCCC1 (centres unmarked),1.03%
6,O=C(CSCc1c(Cl)cccc1Cl)Nc1cc(C(=O)O)cc(C(=O)O)c1,2.67%
7,c1ccc(OCCCCN2CCCC2)cc1,1.13%
8,N#C/C(=C\c1ccc(Br)o1)c1nc(-c2ccc(-c3ccccc3)cc2)cs1,0.705%
9,NCC(c1ccccc1)c1ccc(Cl)cc1Cl (centres unmarked),-1.38%
10,CC1CCC(N[C@H]2CC[C@H](O)CC2)CC1 (some centres unmarked),3.19%
11,COc1cc(C(=O)NCc2cccs2)cc(OC)c1OC,-2.32%
12,CCOC(=O)C1C(=O)CC(O)(c2cccc([N+](=O)[O-])c2)CC1C=C(Cl)Cl (centres unmarked),1.7%
13,Cc1ccccc1C(=O)NCCSc1c[nH]c2ccccc12,1.94%
14,CC(C)(C)C1CCc2c(sc(NC(=O)COc3ccccc3F)c2C#N)C1 (centres unmarked),0.776%
15,COc1ccc(CN2CCN(Cc3ccc4c(c3)OCO4)CC2)c(OC)c1OC,-0.67%
16,O=c1/c(=C/C2=Cc3ccccc3OC2)sc2nc(-c3ccccc3Br)nn12,-1.18%
17,c1ccc(-c2nnc(CNCCN3CCOCC3)o2)cc1,2.14%
18,O=C1OC(c2ccc(Br)o2)=N/C1=C\c1ccc(Cl)c(Cl)c1,5.75%
19,COc1ccc(S(=O)(=O)NCCc2nnc3ccc(SCc4ccccc4)nn23)cc1,1.13%
20,CCOc1ccccc1NC(=O)c1cccnc1,5.06%
21,c1ccc2c(N3CCOCC3)c3c(nc2c1)CCC3,-6.62%
22,CCOC(=O)N1CCC(NCCc2ccc(OC)cc2)CC1,3.48%
23,Cc1ccc(Cn2c(=N)c(C#N)cc3c(=O)n4cccc(C)c4nc32)cc1,0.983%
24,O=C(O)CCC(=O)Nc1cc(C(F)(F)F)ccc1Cl,-8.21%
25,COc1ccccc1OCC(=O)Nc1ccc(S(=O)(=O)N2CCc3ccccc32)cc1,-0.425%
26,Cc1cc(O)n2nc(Cc3ccccc3)c(-c3ccccc3)c2n1,-3.44%
